According to PubChem BioAssay AID602233 (National Center for Advancing Translational Sciences (NCATS), 2012):
Hit rate of the full screen: of about 380,000 compounds, about 170 (0.045%) were called active. Inconclusive means that the source gave no clear call. Such entries were picked first, then a sample of the others. Calls come from the whole dose curve; as a rule, active = well fitted inhibition curve with a large enough effect; inconclusive = small, poorly fitted or top-dose-only effect; inactive = no such curve, though single readings can be large or run the other way. Potencies beside an inconclusive call are fits to weak or partial responses and may not hold up.

Each molecule was assayed against Phosphoglycerate kinase, glycosomal (Trypanosoma brucei brucei) (UniProt P07378) (assay: qHTS Assay to Find Inhibitors of Phosphoglycerate Kinase). Settings: PGK/GAPDH coupled, Kinase-Glo luminescence, 60 min; series mostly up to 57.5 µM; activity change, negative = inhibition: at the top concentration.
Outline: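 Luminescent ATP detection (Kinase-Glo Plus) follows a 60-minute room-temperature incubation, with wells lacking PGK as controls. Buffer: 100 mM TEA (pH 7.6), 5 mM MgCl2, 0.01% Tween-20. Coupling enzyme GAPDH (100 nM final) supplies unstable 1,3-BPG in-well.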
% is set by controls: 0 for no effect and ±100 for the full control effect; potency is the fitted concentration of half-maximal effect; tags give direction and shape of the fitted curve.
Note: nearly all actives have a fitted effect of over 60% in size.

Potency, inconclusive:
O=C1NC(=O)/C(=C/c2ccc(-c3cc(C(=O)O)ccc3Cl)o2)S1 39.8 µM [inhibitor, partial curve, poor fit]
COc1ccc(S(=O)(=O)N2CCOCC2)cc1N=Nc1sc(N)nc1-c1ccccc1 14.1 µM [inhibitor, partial curve]
CCOc1ccc2nc(NC(=O)c3ccccc3)sc2c1 12.6 µM [inhibitor, partial curve]
CCN(CC)S(=O)(=O)c1ccc(N/N=C/c2ccccc2OCC(=O)O)c([N+](=O)[O-])c1 31.6 µM [inhibitor, partial curve, poor fit]
Cc1cccc(N=C2NC(=O)/C(=C/C=C/c3ccco3)S2)c1C 12.6 µM [inhibitor, partial curve, poor fit]
O=C(CSc1nc(-c2ccccc2)nc2c1Cc1ccccc1O2)Nc1ccc(C(=O)O)cc1 3.55 µM [inhibitor, full curve, poor fit]
O=C(COC(=O)/C=C/c1ccco1)NCc1ccco1 25.1 µM [inhibitor, partial curve, poor fit]
COc1ccccc1C(=O)Nc1ccc2c(c1)CCCN2C(=O)c1ccccc1 25.1 µM [inhibitor, partial curve, poor fit]
COc1ccc(/C=N/NC(=O)c2nonc2C)cc1 11.2 µM [inhibitor, partial curve, poor fit]
O=P(c1ccccc1)(c1ccccc1)c1cc(S(=O)(=O)O)ccc1O 25.1 µM [inhibitor, partial curve]
O=C1C=C(Nc2ccc(O)cc2)C(=O)c2ccccc21 25.1 µM [inhibitor, partial curve, poor fit]
CCc1n[n+](CC(=O)c2ccccc2)c(N)s1 20 µM [inhibitor, partial curve, poor fit]
Cc1ccc(NC(=O)CN2C(=O)S/C(=C\c3cccn3-c3cccc(C(=O)O)c3)C2=O)cc1C 22.4 µM [inhibitor, single point]
O=C(O)COc1ccccc1/C=C1\SC(=Nc2ccc(F)cc2)N(c2ccc(F)cc2)C1=O 39.8 µM [inhibitor, single point]
C=C(C)C(=O)Nc1cccc(C2=NOC3(C2)C[C@@H](C(N)=O)N(C(=O)/C=C/C=C/C)C3)c1 (some centres undefined) 1.58 µM [inhibitor, full curve, poor fit]
CCOc1ccc(OCCC(=O)OCC(=O)Nc2cc(S(=O)(=O)N3CCOCC3)ccc2C)cc1 39.8 µM [inhibitor, partial curve, poor fit]
CCOc1ccc(NC(=S)N2CCC(c3nc4ccccc4[nH]3)CC2)cc1 31.6 µM [inhibitor, single point]
Cc1cc(C(=O)O)ccc1-c1ccc(/C=C2\NC(=O)N(Cc3ccccc3Cl)C2=O)o1 35.5 µM [inhibitor, single point]
O=C(Nc1ccc(S(=O)(=O)Nc2nccs2)cc1)c1nn(-c2ccccc2)ccc1=O 39.8 µM [inhibitor, single point]
CCOc1ccc(N/C=C/C(=O)c2ccccc2)cc1 20 µM [inhibitor, partial curve, poor fit]
O=C(NC1CCCCCC1)c1ccc(N2CCCC2=O)cc1 39.8 µM [inhibitor, partial curve, poor fit]
COc1ccccc1NCCC(=O)OCC(=O)NCc1ccco1 35.5 µM [inhibitor, single point]
COc1ccc(CN2C(=O)c3cccnc3C2O)cc1 (centres undefined) 7.08 µM [inhibitor, single point]
CC(C)N(Cc1ccccc1)C(=O)COC(=O)c1ccc2ncsc2c1 28.2 µM [inhibitor, partial curve, poor fit]

Potency, active:
COc1ccc(C(=O)O/N=C(\C)c2ccccc2)cc1 22.4 µM
O=C(CSc1nc2ccccc2n1CCc1ccccc1)c1ccc(O)c(O)c1 7.94 µM
C=C(C)C(=O)Nc1cccc(C2=NOC3(C2)C[C@@H](C(N)=O)N(C(=O)CC(c2ccccc2)c2ccccc2)C3)c1 (some centres undefined) 8.91 µM
O=C(O)C(Cc1ccccc1)N1C(=O)/C(=C/C=C/c2ccco2)SC1=S (centres undefined) 12.6 µM

Activity change, negative = inhibition, inactive:
O=C1Nc2ccccc2Nc2ccccc21 -3.43%
O=C(CN1C(=O)CC(c2ccco2)Sc2ccccc21)Nc1ccc(Br)cc1 (centres undefined) -2.31%
C=CCn1c(SCC(=O)NCC2CCCO2)nc2scc(-c3ccc(OC)cc3)c2c1=O (centres undefined) -0.608%
CCCCCC(=O)Nc1cccc(C2=NOC3(C2)C[C@@H](C(N)=O)N(C(=O)c2ccc(OC)cc2)C3)c1 (some centres undefined) -20%
CCN=C1S/C(=C\c2ccc(N3CCOCC3)cc2C)C(=O)N1CC 6.92%
CCCN1Cc2cccc(C(=O)N3CCN(c4cc(Cl)ccc4C)CC3)c2C1=O 2.16%
CCOC(=O)C1CCC(CN(Cc2ccc(OC)cc2)S(=O)(=O)c2ccc(F)c(C(=O)Nc3c(C)cccc3C)c2)CC1 (centres undefined) -4.41%
Cc1ccc(N2C(=O)c3ccccc3C2C(=O)c2cc(C)ccc2O)cc1 (centres undefined) -6.81%
Cc1c(C(=O)N2CCCCC2C)sc2ncnc(N3CCc4ccccc4C3)c12 (centres undefined) 1.62%
COCCOc1cc(Nc2nnc(C(F)(F)F)s2)c(Cl)cc1Cl -0.404%
CC(C)(C)NC(=S)N/N=C\c1ccc(-c2ccc([N+](=O)[O-])cc2)o1 -2.75%
CCOC(=O)c1c(C)[nH]c(=S)c(C#N)c1-c1ccc(Cl)cc1 -7.73%
O=C(COC(=O)c1ccc(S(=O)(=O)NCc2ccco2)cc1)Nc1ccccc1 1.49%

outcome, inactive:
COc1cccc(C(C#N)N2CCOCC2)c1 (centres undefined)
CC(=O)c1ccc(-n2c(-c3cc(-c4ccco4)[nH]n3)n[nH]c2=S)cc1
Cn1c(CSCc2ccccc2)nnc1SCC(=O)Nc1ccc(C(=O)O)cc1
